# Experimental data taken from PubChem BioAssay AID624296 (National Center for Advancing Translational Sciences (NCATS), 2012).
# Screen size: about 350,000 compounds; about 9,900 (2.8%) were called active. This list was built around the results that the source calls inconclusive (neither active nor inactive); the mix of calls is not that of the screen. Calls come from the whole dose curve; as a rule, active = well fitted activation curve with a large enough effect; inconclusive = small, poorly fitted or top-dose-only effect; inactive = no such curve, though single readings can be large or run the other way. No potency is given beside an inconclusive call; the fits are too rough.
# Experiment: A quantitative high throughput screen for small molecules that induce DNA re-replication in MCF 10a normal breast cells. Note: nearly all actives have a fitted effect of over 50% in size.
# Details: MCF 10A DNA re-replication, Hoechst nuclear intensity, 48 h; series mostly up to 46.1 µM
# Potency is the fitted concentration of half-maximal effect; tags give direction and shape of the fitted curve.
row,SMILES,Potency
1,CC1=NN(c2ccc([N+](=O)[O-])cc2)C(=O)/C1=C\N(C)C,inactive
2,Cc1c(C)c2c(OCC(=O)Nc3ccc(CCO)cc3)cc3c(c2oc1=O)CCC(C)(C)O3,"inconclusive [activator, single point]"
3,Cc1ccc(NC(=O)CCC(=O)NNC(=O)CCc2ccccc2)c(C)c1,inactive
4,O=C1/C(=C\c2ccccn2)SC(=S)N1Nc1ncc(C(F)(F)F)cc1Cl,inactive
5,Brc1ccc2ncc3ccccc3c2c1,inactive
6,CCCNc1c(F)c(F)c2c(C)c3ccccc3nc2c1F,"inconclusive [activator, partial curve]"
7,CCOc1ccc(C(=O)N2CCN(S(=O)(=O)c3cccs3)CC2)c(OCC)c1,inactive
8,O=C(CN(c1ccccc1)S(=O)(=O)c1ccccc1)NCCSc1nc2ccccc2s1,"inconclusive [activator, full curve]"
9,O=C(CSc1ccccc1C(=O)NCCCN1CCCC1=O)NCc1ccco1,"inconclusive [activator, partial curve, poor fit]"
10,O=C(Nc1cc(-c2ccccc2)[nH]n1)c1ccc(Cl)cc1,"inconclusive [activator, partial curve, poor fit]"
11,CN(CCOc1ccc(CC2SC(=O)NC2=O)cc1)c1ccccn1 (stereo unspecified),"inconclusive [activator, full curve, poor fit]"
12,COC(=O)c1ccc(C(=O)OC)c(NC(=S)N2CC(C)CC(C)C2)c1 (stereo unspecified),inactive
13,CSc1cccc(NC(=S)N(CCCN2CCC(C)CC2)Cc2cccs2)c1,"inconclusive [activator, partial curve, poor fit]"
14,O=C(CCN1CCCCC1)Nc1cccc(Cl)c1,inactive
15,CC(=O)N1CCN(Cc2nc3cc(NC(=O)c4ccccc4Cl)ccc3n2C)CC1,inactive
16,COc1ccc(S(=O)(=O)N2CCCC2CNC(=O)C(=O)NCc2ccccc2Cl)cc1 (stereo unspecified),"inconclusive [activator, single point]"
17,CC(=O)CSc1nc2c(c(=O)[nH]c(=O)n2C)n1Cc1cccc(Br)c1,"inconclusive [activator, partial curve, poor fit]"
18,O=C(Nc1ncc(Cc2cccc(Cl)c2Cl)s1)c1ccc([N+](=O)[O-])cc1,"inconclusive [activator, partial curve, poor fit]"
19,CC(=O)N1CCN=C1SCc1cccc(C)c1,inactive
20,COC(=O)c1cc(NC(=O)CN(c2ccc(OC)cc2)S(=O)(=O)c2ccc(F)cc2)ccc1Cl,inactive
21,CCOC(=O)C1(C(=O)OCC)NC(=O)CC1CC (stereo unspecified),inactive
22,NC(=O)c1ccccc1NC(=O)CS(=O)(=O)Cc1ccccc1,"inconclusive [activator, partial curve, poor fit]"
23,Cc1cccc(NC(=O)CN2CCN(C(=O)c3cnn(Cc4ccccc4)c3)CC2)c1C,inactive

row,SMILES,Potency
1,COc1ccc(C(=O)c2cn[nH]c2-c2cc(C)ccc2O)cc1,inactive
2,CCN(Cc1nc2cc(Cl)ccc2c(=O)[nH]1)C(=O)c1cccc(OCc2c(C)noc2C)c1,"inconclusive [activator, single point]"
3,O=S(=O)(Nc1cccc(S(=O)(=O)N2CCCC2)c1)c1ccc(Cl)cc1,inactive
4,COc1ccc2[nH]c(C(=O)O)c(CCNC(=O)/C=C/c3ccc(O)c(OC)c3)c2c1,inactive
5,CCOC(=O)c1sc2nc(N3CCOCC3)c3c(c2c1N)CC(C)(C)N(C)C3,"inconclusive [activator, full curve, poor fit]"
6,Cc1cccc(C)c1OC(=O)CSc1nnc(-c2ccccc2O)o1,active: 18.4 µM
7,CC(C)c1ccc(/C=C2\SC(N3CCCC3)=NC2=O)cc1,"inconclusive [activator, single point]"
8,NC(=O)CSc1nc(C23CC4CC(CC(C4)C2)C3)nc2ccccc12,"inconclusive [activator, partial curve, poor fit]"
9,Cc1ccc(-c2nn(CCC#N)cc2C=C(C#N)C#N)cc1,"inconclusive [activator, single point]"
10,CCOC(=O)c1c(C)[nH]c(C(=O)OCC(O)=C(C#N)c2nc3ccccc3[nH]2)c1C,active: 13 µM
11,Cc1ccc(S(=O)(=O)c2nnn3c2nc(NCCCN2CCCC2=O)c2ccccc23)cc1C,"inconclusive [activator, partial curve, poor fit]"
12,COCCNS(=O)(=O)c1cc(OC)c(C)cc1C,"inconclusive [activator, single point]"
13,Brc1cc2c(cc1Br)OCCOCCOCCOCCO2,"inconclusive [activator, single point]"
14,Cc1ccc2nc(N3C(=O)C(O)=C(C(=O)c4ccc(C)o4)C3c3ccc(O)cc3)sc2c1 (stereo unspecified),"inconclusive [activator, single point]"
15,CCOC(=O)CC1CCCCN1C(=O)c1ccc2oc(CCc3ccccc3)nc2c1 (stereo unspecified),"inconclusive [activator, single point]"
16,CCN1C(=O)C(C)S/C1=N\S(=O)(=O)c1ccc(Cl)s1 (stereo unspecified),inactive
17,COc1ccc(C(=O)OCC(=O)Nc2sccc2C(N)=O)cc1[N+](=O)[O-],inactive
18,O=C(CSc1nc2ccccc2c(=O)n1NC(=O)Cc1ccccc1)NCc1ccccc1,inactive
19,COc1cccc(-c2cc(C(=O)N3CCCc4ccccc43)no2)c1,"inconclusive [activator, partial curve, poor fit]"
20,CN(CC(=O)Nc1c(Cl)cccc1Cl)C(=O)c1ccc(-n2cncn2)c([N+](=O)[O-])c1,inactive
21,COc1ccc(C(=O)CSc2nnc(Cn3cnc4ccccc43)o2)cc1,"inconclusive [activator, partial curve, poor fit]"
22,CCCN(CCC)c1nc(-c2ccccn2)nc2ccccc12,active: 20.6 µM
23,O=C(Cn1cc(S(=O)(=O)Cc2cccc([N+](=O)[O-])c2)c2ccccc21)N1CCOCC1,"inconclusive [activator, partial curve, poor fit]"
